From the antibiotic and cytotoxicity screens of Wong et al. (2023) come the findings set out here.

This is one part of the list.

In the test the test system is HepG2. The test is described as follows: cytotoxicity call (relative viability < 0.9). The settings on record: 10 µM.
Consider `O=C(C[C@@H]1CC[C@@H]2[C@H](COC[C@H](O)CN2S(=O)(=O)c2ccc(F)cc2)O1)NCc1ccc(Cl)c(Cl)c1`, for which the cytotoxicity call was “inactive”. Then `C[C@H]1CCCCO[C@H](CN(C)Cc2ccc(C(F)(F)F)cc2)[C@@H](C)CN([C@@H](C)CO)C(=O)c2cc(NS(=O)(=O)c3ccc(Cl)cc3)ccc2O1`, with “inactive”; and `CO[C@@H]1CN(C)C(=O)c2ccc(NS(=O)(=O)c3cn(C)cn3)cc2OC[C@H](C)N(CC2CC2)C[C@@H]1C`, with “inactive”. Then `Cc1noc(C)c1S(=O)(=O)N(C)C[C@H]1Oc2ccc(NC(=O)C3CCCCC3)cc2CC(=O)N([C@@H](C)CO)C[C@H]1C`, with “inactive”. Then `CC[C@@H](C)CCCCC(=O)N[C@@H](CCN)C(=O)N[C@H](C(=O)N[C@@H](CCN)C(=O)N[C@H]1CCNC(=O)[C@H]([C@@H](C)O)NC(=O)[C@H](CCN)NC(=O)[C@H](CCN)NC(=O)[C@H](CC(C)C)NC(=O)[C@@H](Cc2ccccc2)NC(=O)[C@@H](CCN)NC1=O)[C@@H](C)O`, with “inactive”.

In the case of `C[C@H]1CN([C@@H](C)CO)C(=O)Cc2cc(NC(=O)Nc3ccc4c(c3)OCO4)ccc2O[C@H]1CN(C)C(=O)Nc1ccc(C(F)(F)F)cc1`, the cytotoxicity call is “active”.

Take `C[C@@H]1CN([C@H](C)CO)S(=O)(=O)c2ccc(-c3ccncc3)cc2O[C@@H]1CN(C)C(=O)c1cccc(F)c1`: the cytotoxicity call was “inactive”. Take `Cc1cccc(CN(C)C[C@@H]2Oc3ncc(-c4cc5ccccc5o4)cc3C(=O)N([C@H](C)CO)C[C@@H]2C)c1`: the cytotoxicity call is “active”. The result for `O=C(C[C@@H]1C[C@@H]2c3cc(NC(=O)Nc4ccc(C(F)(F)F)cc4)ccc3O[C@@H]2[C@@H](CO)O1)NCCc1ccccc1` reads “inactive”; that for `CCC(=O)N(C)C[C@H]1Oc2ncc(C#C[C@H](C)O)cc2C(=O)N([C@H](C)CO)C[C@@H]1C`, “inactive”; that for `C[C@H](CO)N1C[C@H](C)[C@@H](CN(C)S(=O)(=O)c2cn(C)cn2)Oc2ccc(NC(=O)Nc3ccccc3)cc2C1=O`, “inactive”.

Take `C[C@@H]1CN([C@H](C)CO)S(=O)(=O)c2ccc(C#CCC3CCCC3)cc2O[C@@H]1CN(C)C(=O)CN(C)C`: the cytotoxicity call is “inactive”. For the compound `COc1ccc(NC(=O)N(C)C[C@H]2Oc3ccc(NC(=O)Cn4cnnn4)cc3CC(=O)N([C@H](C)CO)C[C@@H]2C)cc1`, the cytotoxicity call is “inactive”.

Consider `Cc1ccc(S(=O)(=O)Nc2ccc3c(c2)C(=O)N([C@@H](C)CO)C[C@@H](C)[C@H](CN(C)CC2CCCCC2)OCCCC[C@@H](C)O3)cc1`, for which the cytotoxicity call is “inactive”.

`COc1ccc(S(=O)(=O)N2C[C@@H](O)COC[C@H]3O[C@H](CC(=O)NCCCN4CCOCC4)CC[C@@H]32)cc1`: the cytotoxicity call was “inactive”. In the case of `O=C(C[C@H]1C[C@@H]2c3cc(NS(=O)(=O)c4ccc(F)cc4)ccc3O[C@@H]2[C@H](CO)O1)NCc1cccc(F)c1`, the cytotoxicity call was “inactive”. For `C[C@H]1CN([C@@H](C)CO)C(=O)c2cc(-c3ccc(C#N)cc3)cnc2O[C@@H]1CN(C)C(=O)Nc1ccc(C(F)(F)F)cc1`, the cytotoxicity call is “inactive”.

For `C[C@@H]1CN([C@@H](C)CO)C(=O)c2cc(NS(=O)(=O)c3ccccc3)ccc2O[C@@H](C)CCCCO[C@@H]1CN(C)C(=O)c1ccccc1`, the cytotoxicity call was “inactive”.

On to `C[C@@H]1CN([C@H](C)CO)C(=O)c2cc(NS(=O)(=O)c3cn(C)cn3)ccc2O[C@H]1CN(C)Cc1ccncc1`, for which the cytotoxicity call is “inactive”. The result for `C[C@@H]1CN([C@H](C)CO)C(=O)c2cccc(NS(=O)(=O)c3cn(C)cn3)c2O[C@@H]1CN(C)Cc1ccc(C(=O)Nc2ccccc2N)cc1` reads “inactive”. Then `Cc1noc(C)c1NC(=O)Nc1ccc2c(c1)C(=O)N([C@@H](C)CO)C[C@@H](C)[C@H](CN(C)C(=O)Nc1ccc3c(c1)OCO3)OCCCC[C@@H](C)O2`, with “inactive”; and `C[C@@H]1CN([C@@H](C)CO)C(=O)c2cc(NS(C)(=O)=O)ccc2O[C@@H]1CN(C)S(C)(=O)=O`, with “inactive”; and `CN1C(=O)c2cc(NS(=O)(=O)c3ccc(F)cc3)ccc2OC[C@H]2O[C@@H](CC(=O)Nc3cccc4ccccc34)CC[C@@H]21`, with “inactive”. Regarding `CCOCCCNc1nc2c([nH]1)c(=O)n(C)c(=O)n2C`, the cytotoxicity call is “inactive”.

Regarding `Cc1noc(C)c1S(=O)(=O)N(C)C[C@@H]1Oc2ccc(NC(=O)C3CCCCC3)cc2CC(=O)N([C@@H](C)CO)C[C@@H]1C`, the cytotoxicity call was “inactive”.

For `C[C@@H]1CN([C@@H](C)CO)C(=O)c2cc(C#CC3(O)CCCC3)cnc2O[C@H]1CN(C)C(=O)Cc1cccnc1`, the cytotoxicity call was “inactive”. The result for `C[C@@H]1CN([C@@H](C)CO)C(=O)c2cc(N(C)C)ccc2O[C@@H](C)CCCCO[C@@H]1CN(C)C(=O)Nc1ccc(C(F)(F)F)cc1` reads “active”.
